# Publication PMC9911399, “Two distinct binding modes provide the RNA-binding protein RbFox with extraordinary sequence specificity”
# Substitutions are numbered along the chain they refer to; changes in the protein carry UniProt numbers. Some of the results follow.
# T1: RBFOX1 RRM (Homo sapiens, UniProt Q9NWB1 109-208)
# T1 sequence: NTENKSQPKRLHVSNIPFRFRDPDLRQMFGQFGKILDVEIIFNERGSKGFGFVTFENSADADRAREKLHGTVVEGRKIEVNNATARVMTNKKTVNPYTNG
# B1: UCGUCCU (DNA:RNA)
# RNA: GGGAGACCGGAAUUCAGAUUGUCCUCGUCCUUUAAAUCCCGUCGUAGCCACCA
# DNA 1: CAATCTGAATTCCGGTCTCCC
# DNA 2: TGGTGGCTACGACGGGATT
# B2: GCCAGGC (DNA:RNA)
# RNA: B1 RNA with U25G, G27C, U28A, C29G, C30G, U31C
# DNA 1: CAATCTGAATTCCGGTCTCCC
# DNA 2: TGGTGGCTACGACGGGATT
# B3: CCUACUG (DNA:RNA)
# RNA: B1 RNA with U25C, G27U, U28A, C30U, U31G
# DNA 1: CAATCTGAATTCCGGTCTCCC
# DNA 2: TGGTGGCTACGACGGGATT
# B4: GCGCAUG (DNA:RNA)
# RNA: B1 RNA with U25G, U28C, C29A, C30U, U31G
# DNA 1: CAATCTGAATTCCGGTCTCCC
# DNA 2: TGGTGGCTACGACGGGATT
# B5: CUAGCUC (DNA:RNA)
# RNA: B1 RNA with U25C, C26U, G27A, U28G, C30U, U31C
# DNA 1: CAATCTGAATTCCGGTCTCCC
# DNA 2: TGGTGGCTACGACGGGATT
# B6: GAUUCGA (DNA:RNA)
# RNA: B1 RNA with U25G, C26A, G27U, C30G, U31A
# DNA 1: CAATCTGAATTCCGGTCTCCC
# DNA 2: TGGTGGCTACGACGGGATT
# B7: UUUGAUG (DNA:RNA)
# RNA: B1 RNA with C26U, G27U, U28G, C29A, C30U, U31G
# DNA 1: CAATCTGAATTCCGGTCTCCC
# DNA 2: TGGTGGCTACGACGGGATT
# B8: AUCUUAC (DNA:RNA)
# RNA: B1 RNA with U25A, C26U, G27C, C29U, C30A, U31C
# DNA 1: CAATCTGAATTCCGGTCTCCC
# DNA 2: TGGTGGCTACGACGGGATT
# B9: CUACCGA (DNA:RNA)
# RNA: B1 RNA with U25C, C26U, G27A, U28C, C30G, U31A
# DNA 1: CAATCTGAATTCCGGTCTCCC
# DNA 2: TGGTGGCTACGACGGGATT
# B10: CGGUUUA (DNA:RNA)
# RNA: B1 RNA with U25C, C26G, C29U, C30U, U31A
# DNA 1: CAATCTGAATTCCGGTCTCCC
# DNA 2: TGGTGGCTACGACGGGATT
# B11: CCUUUAC (DNA:RNA)
# RNA: B1 RNA with U25C, G27U, C29U, C30A, U31C
# DNA 1: CAATCTGAATTCCGGTCTCCC
# DNA 2: TGGTGGCTACGACGGGATT
# B12: CCGAGUC (DNA:RNA)
# RNA: B1 RNA with U25C, U28A, C29G, C30U, U31C
# DNA 1: CAATCTGAATTCCGGTCTCCC
# DNA 2: TGGTGGCTACGACGGGATT
# B13: AUUCUUA (DNA:RNA)
# RNA: GGGAGACCGGAAUUCAGAUUGUCCAUUCUUAUUAAAUCCCGUCGUAGCCACCA
# DNA 1: CAATCTGAATTCCGGTCTCCC
# DNA 2: TGGTGGCTACGACGGGATT
# B14: AUACUGG (DNA:RNA)
# RNA: B13 RNA with U27A, U30G, A31G
# DNA 1: CAATCTGAATTCCGGTCTCCC
# DNA 2: TGGTGGCTACGACGGGATT
# B15: AGUGGCG (DNA:RNA)
# RNA: B13 RNA with U26G, C28G, U29G, U30C, A31G
# DNA 1: CAATCTGAATTCCGGTCTCCC
# DNA 2: TGGTGGCTACGACGGGATT
# B16: UAUCAAA (DNA:RNA)
# RNA: B13 RNA with A25U, U26A, U29A, U30A
# DNA 1: CAATCTGAATTCCGGTCTCCC
# DNA 2: TGGTGGCTACGACGGGATT
# B17: GAACGCC (DNA:RNA)
# RNA: B13 RNA with A25G, U26A, U27A, U29G, U30C, A31C
# DNA 1: CAATCTGAATTCCGGTCTCCC
# DNA 2: TGGTGGCTACGACGGGATT
# B18: GCUAAAU (DNA:RNA)
# RNA: B1 RNA with U25G, G27U, U28A, C29A, C30A
# DNA 1: CAATCTGAATTCCGGTCTCCC
# DNA 2: TGGTGGCTACGACGGGATT
# B19: GCUGAAA (DNA:RNA)
# RNA: B13 RNA with A25G, U26C, C28G, U29A, U30A
# DNA 1: CAATCTGAATTCCGGTCTCCC
# DNA 2: TGGTGGCTACGACGGGATT
# B20: CGAACUG (DNA:RNA)
# RNA: B13 RNA with A25C, U26G, U27A, C28A, U29C, A31G
# DNA 1: CAATCTGAATTCCGGTCTCCC
# DNA 2: TGGTGGCTACGACGGGATT
# Target: T1, RBFOX1 RRM
# Assay: EMSA; HiTS-Eq, 1 nM pool, 10 min; buffer printed only for the single-RNA assays: 10 mM Tris pH 7.5, 150 mM NaCl, 3.4 mM EDTA, 0.001% NP-40, 30 C
# Details: tags: His6 N-terminal (pET28a); label: 5' 32P
# In short: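 These values rest on relative association constants, computed from read-count changes of each RNA species versus the control reaction and normalised to the cognate motif. Reads came from free RNA recovered by 8% native PAGE after purified RbFox RRM (wild type or mutant) at increasing concentrations was equilibrated for 10 min in 50 µL with 1 nM of a 5′-radiolabelled pool with 7 randomized nucleotides and DNA-annealed flanks.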
row,Binder,binding signal
1,B1,0.0102 KA relative to UGCAUGU
2,B2,0.0132 KA relative to UGCAUGU
3,B3,0.00803 KA relative to UGCAUGU
4,B4,0.843 KA relative to UGCAUGU
5,B5,0.013 KA relative to UGCAUGU
6,B6,0.0161 KA relative to UGCAUGU
7,B7,0.0244 KA relative to UGCAUGU
8,B8,0.000766 KA relative to UGCAUGU
9,B9,0.00627 KA relative to UGCAUGU
10,B10,0.0105 KA relative to UGCAUGU
11,B11,0.00589 KA relative to UGCAUGU
12,B12,0.0112 KA relative to UGCAUGU
13,B13,0.00172 KA relative to UGCAUGU
14,B14,0.00795 KA relative to UGCAUGU
15,B15,0.0184 KA relative to UGCAUGU
16,B16,0.00334 KA relative to UGCAUGU
17,B17,0.00854 KA relative to UGCAUGU
18,B18,0.00755 KA relative to UGCAUGU
19,B19,0.0131 KA relative to UGCAUGU
20,B20,0.0156 KA relative to UGCAUGU
